Laboratory results reported in PubChem BioAssay AID686979 (National Center for Advancing Translational Sciences (NCATS), 2013).
Values joined by “and” are separate entries in the source; they are usually repeats but may differ in a detail not shown here. Equal values may be shown once. In all, about 420,000 compounds went through this assay and about 50,000 (12%) were called active. This list was built around the results that the source calls inconclusive (neither active nor inactive); the mix of calls is not that of the screen. Calls follow the shape of the dose curve; as a rule, active = well fitted inhibition curve with a large enough effect; inconclusive = small, poorly fitted or top-dose-only effect; inactive = flat fitted curve, though single readings scatter. Where the call is inconclusive, the potency comes from a doubtful curve fit.

test: qHTS for Inhibitors of human tyrosyl-DNA phosphodiesterase 1 (TDP1): qHTS in cells in presence of CPT; details: chicken DT40 Tdp1-/-;hTDP1 cells + 20 nM CPT, ATP luminescence, 48 h; activity change, negative = growth inhibition: at 46.2 µM (top of the series) unless noted; also: nearly all actives have a fitted effect of over 55% in size
Procedure, shortened: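 Chicken DT40 Tdp1-/- cells complemented with human TDP1, 400 cells/well, exposed to compounds plus 20 nM camptothecin for at least 48 h at 37 C; viability read as ATP content by CellTiter-Glo luminescence.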
% is scaled to controls: 0 for no effect and ±100 for the full control effect; potency is read from the fitted curve at half-maximal effect; tags tell the direction and shape of the fitted curve.

Row | SMILES | Potency | activity change, negative = growth inhibition
1 | COc1cccc(NC(=O)Cc2nnc(SCCOc3ccccc3)n2C)c1 | inconclusive: 18.4 µM [inhibitor, single point] | –
2 | CCCN1C(=O)C(O)(CC(=O)c2ccc(C(C)C)cc2)c2ccccc21 (stereo not given) | inconclusive: 29.1 µM [inhibitor, single point] | –
3 | CN1CCN(/N=C/c2c3ccccc3c(Cl)c3ccccc23)CC1 | inconclusive: 18.4 µM [inhibitor, single point] | –
4 | Clc1ccc(OCc2cn3cccnc3n2)c2ncccc12 | – | inactive: 1.75%
5 | O=C1NC(Nc2nccs2)(C(F)(F)F)C(=O)N1CCc1ccccc1 (stereo not given) | – | inactive: -9.78%
6 | Cc1ccc(Cl)cc1N1CCN(S(=O)(=O)c2c(C)[nH]c(C)c2C(=O)N2CCCC2)CC1 | inconclusive: 29.1 µM [inhibitor, single point] | –
7 | COc1cccc(/C=C/C(=O)N2CCN(S(=O)(=O)c3ccccc3)CC2)c1 | inconclusive: 23.1 µM [inhibitor, single point] | –
8 | CSCCC(C(=O)NC1CCCC1)n1c(-c2ccccn2)nc2ccccc21 (stereo not given) | inconclusive: 23.1 µM [inhibitor, single point] | –
9 | Cc1c(C(=O)N2CCN(c3ccccc3F)CC2)sc2nc(-c3ccccc3)cn12 | inconclusive: 18.4 µM [inhibitor, single point] | –
10 | COc1ccc(N2CCN(C(=O)CN(c3ccccc3)S(=O)(=O)c3ccc(OC)cc3)CC2)cc1 | inconclusive: 23.1 µM [inhibitor, single point] | –
11 | COc1ccc(-c2csc(Nc3cccnc3)n2)cc1OC | inconclusive: 29.1 µM [inhibitor, single point] | –
12 | Cc1ccc(NC(=O)CNc2ccc(OC(C)C)cc2)c(C)c1 | inconclusive: 32.6 µM [inhibitor, single point] | –
13 | CN(Cc1cn[nH]c1-c1ccc2c(c1)OCO2)C1CCOCC1 | – | inactive: 17.3%
14 | COc1cccc(NC(=O)CN(C)C(=O)COc2ccccc2Cc2ccccc2)c1 | – | inconclusive: -36.4% [inhibitor]
15 | CN(CCOc1ccc(Cl)cc1)C(=O)C1CCN(C(=O)c2ccc(Cl)cc2)CC1 | inconclusive: 18.4 µM [inhibitor, single point] | –
16 | CN(CC(=O)NCCc1ccc(S(N)(=O)=O)cc1)S(=O)(=O)/C=C/c1ccccc1 | – | inactive: -20.9%
17 | COc1cccc(/C=N/NC(=O)C(=O)NCc2ccco2)c1OC | – | inactive: -0.361%
18 | CCN(C(=O)Cn1c(=O)oc2cc(S(=O)(=O)N3CCCCC3)ccc21)c1ccccc1 | – | inactive: -5.59%
19 | O=C(Nc1ccc2nc(-c3ccco3)[nH]c2c1)c1ccco1 | inconclusive: 16.4 µM [inhibitor, partial curve] | –
20 | O=C(O)CCCCCNC(=O)c1ccccc1 | – | inactive: 1.11%
21 | COc1ccc(N(C(=O)c2ccc(Cl)cc2)C2=CC3CCC(C2)N3C)cc1 (stereo not given) | – | inactive: -18.8%
22 | O=C(NCc1ccc(F)cc1)c1cc(-c2ccncc2)nc2ccccc12 | inconclusive: 29.1 µM [inhibitor, single point] | –
23 | CN1CCN(Cc2c(O)ccc3cc(-c4ccc(Cl)cc4)c(=O)oc23)CC1 | active: 23.1 µM | –

Row | SMILES | Potency | activity change, negative = growth inhibition
24 | COc1cc(OC)cc(C2C(C#N)=C(N)Oc3n[nH]c(-c4cccnc4)c32)c1 (stereo not given) | – | inactive: 4.96%
25 | C=CCN1CC(C(=O)N2CCC(Cc3ccc(Cl)cc3)(C(=O)OCC)CC2)CC1=O (stereo not given) | inconclusive: 18.4 µM [inhibitor, single point] | –
26 | CCOc1cc(CNC(=O)C2CCN(c3nc4ccccc4[nH]3)CC2)cc(OCC)c1OCC | active: 20.6 µM | –
27 | CCOc1ccc(C(=O)c2ccncc2)cc1 | – | inactive: -1.76%
28 | CCN(CC)CCCC(C)Nc1ccnc2cc(Cl)ccc12 (stereo not given) | inconclusive: 708 nM [inhibitor, full curve, poor fit] and inconclusive: 33.5 µM [inhibitor, single point] and inconclusive: 20.6 µM [inhibitor, single point] | –
29 | c1ccc(CCNc2ncnc3scc(C4COc5ccccc5O4)c23)cc1 (stereo not given) | inconclusive: 23.1 µM [inhibitor, single point] | –
30 | COc1cc(CNS(=O)(=O)c2ccc3c(c2)CC(C)N3C(C)=O)cc(OC)c1OC (stereo not given) | active: 10.3 µM | –
31 | CCN(CC)C(=O)CSc1nc(OC)cc(=O)[nH]1 | – | inactive: -9.68%
32 | CC(C)(C)c1cccc(C2(O)C(=O)c3ccccc3C2=O)c1O | inconclusive: 18.4 µM [inhibitor, single point] | –
33 | CCOC(=O)CSC1=NC(=O)CS1 | active: 10.3 µM | –
34 | COc1ccc(Cl)cc1NC(=O)c1cc(-c2cc(C)ccc2O)n[nH]1 | inconclusive: 23.1 µM [inhibitor, partial curve] | –
35 | Cc1c(C)c2cc3c(c(C)c2oc1=O)OCN(CCc1ccccc1)C3 | active: 13 µM | –
36 | CCOC(=O)C1=C(O)C(=O)NC(c2ccccc2)=C(OC2CCCCC2)C1 | inconclusive: 29.1 µM [inhibitor, single point] | –
37 | COc1ccc(N2CCN(C(=O)C3Cc4ccccc4N3C(C)=O)CC2)cc1 (stereo not given) | inconclusive: 13 µM [inhibitor, partial curve] | –
38 | COc1ccc(-c2csc(NC(=O)c3cccc(S(=O)(=O)N4CCN(C)CC4)c3)n2)cc1 | inconclusive: 11.6 µM [inhibitor, single point] | –
39 | COc1cccc(CNC(=O)c2c(C)oc3ncnc(N4CCOCC4)c23)c1 | – | inactive: 13.7%
40 | CC(C)Cc1nnc(NC(=O)C2=COCCO2)s1 | – | inactive: -7.98%
41 | Cc1ccc(Cc2c(-c3ccc(F)cc3)nc3cc(C)ccn23)cc1 | inconclusive: 29.1 µM [inhibitor, single point] | –
42 | CCN(CC)CC(=O)Nc1ccccc1SCC(=O)Nc1ccsc1C(=O)OC | inconclusive: 29.1 µM [inhibitor, single point] | –
43 | CCOc1ccc(NC(=O)CSc2nnc(C34CC5CC(CC(C5)C3)C4)n2C)cc1 | inconclusive: 29.1 µM [inhibitor, single point] | –
44 | Cc1cc2c(cc1C)-n1nnnc1C(N(Cc1ccccc1)Cc1ccccc1)C(=O)N2 (stereo not given) | inconclusive: 29.1 µM [inhibitor, single point] | –
45 | COC(=O)C1CCN(C(=O)COC(=O)CCc2nc3ccccc3c(=O)[nH]2)CC1 | – | inactive: -16.2%
